Article PMC4336329 (PLoS ONE, 2015)
The campaign covered roughly 310,000 compounds. About 2,200 (0.71%) showed an effect of 50% or more. Effects have a minus sign here. Some of the results follow.

Target: human ether-à-go-go-related gene (hERG) potassium channel (human, UniProt Q12809)
Test: primary screen, population patch clamp on CHO cells stably expressing hERG

Sequence of human ether-à-go-go-related gene (hERG) potassium channel (Q12809 whole entry, looked up): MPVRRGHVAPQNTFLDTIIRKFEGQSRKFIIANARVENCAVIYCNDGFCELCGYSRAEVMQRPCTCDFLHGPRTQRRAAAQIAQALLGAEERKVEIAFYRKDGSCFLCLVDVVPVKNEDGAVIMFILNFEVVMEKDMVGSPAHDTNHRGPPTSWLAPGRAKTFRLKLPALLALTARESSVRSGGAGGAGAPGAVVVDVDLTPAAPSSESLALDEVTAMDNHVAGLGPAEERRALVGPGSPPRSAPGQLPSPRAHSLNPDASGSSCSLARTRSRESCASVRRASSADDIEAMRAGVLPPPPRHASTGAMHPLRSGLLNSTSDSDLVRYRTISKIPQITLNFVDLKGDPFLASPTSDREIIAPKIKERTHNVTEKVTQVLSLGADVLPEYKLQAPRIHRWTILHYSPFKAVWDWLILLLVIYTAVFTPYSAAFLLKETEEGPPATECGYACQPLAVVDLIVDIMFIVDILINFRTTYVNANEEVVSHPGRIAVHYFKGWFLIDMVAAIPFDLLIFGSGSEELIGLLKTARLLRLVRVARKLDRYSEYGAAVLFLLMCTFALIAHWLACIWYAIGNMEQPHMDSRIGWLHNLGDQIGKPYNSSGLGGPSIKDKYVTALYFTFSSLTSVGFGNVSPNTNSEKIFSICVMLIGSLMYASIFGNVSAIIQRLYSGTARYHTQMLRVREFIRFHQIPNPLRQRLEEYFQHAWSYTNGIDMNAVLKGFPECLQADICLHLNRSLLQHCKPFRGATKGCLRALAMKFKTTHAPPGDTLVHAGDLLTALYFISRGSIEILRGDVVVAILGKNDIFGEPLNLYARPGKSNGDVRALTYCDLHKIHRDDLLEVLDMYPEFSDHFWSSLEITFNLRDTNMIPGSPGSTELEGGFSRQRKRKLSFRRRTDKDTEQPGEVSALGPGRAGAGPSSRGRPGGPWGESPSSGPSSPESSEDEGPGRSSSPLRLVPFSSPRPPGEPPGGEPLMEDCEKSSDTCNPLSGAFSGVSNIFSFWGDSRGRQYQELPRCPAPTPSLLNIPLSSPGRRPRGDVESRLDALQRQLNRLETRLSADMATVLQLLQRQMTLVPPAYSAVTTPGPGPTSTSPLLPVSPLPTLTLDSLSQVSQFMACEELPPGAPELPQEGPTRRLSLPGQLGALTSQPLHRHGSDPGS

SMILES | hERG current change (%, negative = inhibition) at 1uM [%]
COc1ccc2c(c1OC)C(=O)O[C@@H]2[C@H]1c2cc3c(cc2CCN1C)OCO3.Cl | 0.42
CC(C)c1ccccc1NC(=O)COC(=O)CNC(=O)c1ccc(Br)cc1 | 11
CCCn1c(N)c(N(CCOC)C(=O)c2ccc(N3CCCC3=O)cc2)c(=O)[nH]c1=O | 8.2
O=C(NC1=NCCS1)c1csc2ccccc12 | 5.26
COc1ccc2oc(C(=O)OCC(=O)Nc3cccc(S(=O)(=O)N4CCOCC4)c3)c(C)c2c1 | -4.87
NC(=O)CN1C(=O)C(=O)N(Cc2ccccc2Cl)C1=O | 10.1
CCSc1nc2ccccc2n1C(=O)c1ccc(S(=O)(=O)N2CCCCCC2)cc1 | 1.78
CCCCCCn1c(CN2CCCCC2C)nc2c1c(=O)n(C)c(=O)n2C (centres unmarked) | -28.6
CCOCCn1c(N2CCN(c3ccc(OC)cc3)CC2)nc2c1c(=O)[nH]c(=O)n2C | 2.36
CC(=O)c1ccc(NS(=O)(=O)c2ccc(N)cc2)cc1 | 8.49
Cc1cccc2c1N(C(=O)c1ccco1)C(C)(C)c1ssc(=S)c1-2 | 14
CCCCCC(C(=O)O)C(C)CC(=O)NC1CCCCC1 (centres unmarked) | 6.06
Cc1ccccc1NC(=O)C(C)n1c2ccccc2c2nc(=O)cc(C)n21 (centres unmarked) | 1.58
O=C(CCc1nnc(COc2ccccc2)o1)NCc1ccc(Cl)s1 | 11.8
COc1ccc(NN=Nc2nc3c([nH]2)c(=O)n(C)c(=O)n3C)cc1 | 7.39
CCOC(=O)c1nc(C)sc1-c1ccnn1S(=O)(=O)c1ccc(Cl)cc1Cl | 2.77
CCO[C@@H]1OC(C(=O)NC2CC2)=C[C@H](c2c[nH]c3ccccc23)[C@H]1CCCO | 4.87
COc1ccc2nc(NC(=O)CSc3nnc4n3C(C)(C)Cc3ccccc3-4)sc2c1 | 0.699
CC(C)(C)NC(=O)C(c1ccc(O)cc1)N(C(=O)CCC(=O)Nc1nccs1)c1ccccc1F (centres unmarked) | 14.7
COc1ccc(-c2nnc(OCc3ccccc3)c3ccccc23)cc1 | 9.38
O=[N+]([O-])c1cc([N+](=O)[O-])c(N2CCCCCC2)cc1NCCO | 6.14
O=C(COC(=O)c1ccc(S(=O)(=O)N2CCCCCC2)cc1)NCc1ccc(Cl)cc1 | 13

SMILES | hERG current change (%, negative = inhibition) at 1uM [%]
NC(=O)CC(NC(=O)Cc1ccc(Cl)cc1)c1ccc(NCc2ccccc2)c([N+](=O)[O-])c1 (centres unmarked) | -0.137
O=C(N/N=C/c1ccc(OC2CSC2)cc1)c1ccc(CN2CCOCC2)cc1 | -4.48
COc1ccc(OC)c(/C=C/C(=O)Oc2ccc(C(C)=O)cc2)c1 | 13.3
CC(C)/C=N/NC(=O)c1cc(Br)ccc1O | -1.33
CSC(=NC#N)N1CCN(C(=NC#N)SC)CC1 | 6.57
Cc1cccc(C(=O)Nc2ccc(CC(=O)O)cc2)c1 | -0.972
COC(=O)c1ccc(NC(=O)c2ccc3nc(C)sc3c2)cc1 | 15.4
O=C1c2ccccc2C(=O)N1C/C=C/c1ccccc1 | 10.2
Cc1ccc(/C=C/S(=O)(=O)NCC(=O)OCC(=O)NCc2ccccc2)cc1 | 6.6
CN1CCN(C(=O)c2cnn(-c3ccccc3)c2NC(=O)c2ccccc2Cl)CC1 | 1.45
COC(=O)C1=CNC=C(C(=O)OC)C1c1cccc2ccccc12 | -8.37
CCCC[C@@H]1CNC(=O)C(=O)N1CCCc1cc(OC)c(OC)c(OC)c1 | 15.9
O=C(Cc1ccc(F)cc1)NCCc1ccccc1 | 5.52
COc1ccc2c(c1)CC/C(=C/c1ccco1)C2=O | 6.18
COc1ccc(NC(=S)Nc2cc(C(F)(F)F)ccc2F)cc1 | 9.87
COCC(C)NC(=S)NCCc1ccc(Cl)cc1Cl (centres unmarked) | 16
Cc1ccc(CCN2CCN=C2N(C)C)cc1 | 8.55
c1ccc(-c2cnnc(-c3ccccn3)n2)cc1 | 4.98
COCC(=O)N(Cc1cc2cc(C)ccc2[nH]c1=O)c1cccc(C)c1C | 12.9
COc1ccc(NC(=O)CCN2CCC(C)CC2)cc1 | 5.99
Cc1ccc2oc(=O)n(CCC(=O)Nc3ccc(N4CCOCC4)cc3)c2c1 | 6.76
Cc1ccc(S(=O)(=O)N2CCN(S(=O)(=O)c3ccc4c(c3)OCCO4)CC2)cc1 | 13.6
